Test results: PubChem BioAssay AID651820 (National Center for Advancing Translational Sciences (NCATS), 2012)
Hit rate of the full screen: of about 340,000 compounds, about 12,000 (3.5%) were called active. The inconclusive results got no clear call from the source; some entries with a clear call stand among them for comparison. Calls follow the shape of the dose curve; as a rule, active = well fitted inhibition curve with a large enough effect; inconclusive = small, poorly fitted or top-dose-only effect, or another doubt; inactive = no such curve, though single readings can be large or run the other way. No potency is given beside an inconclusive call; the fits are too rough.

Test: qHTS Assay for Inhibitors of Hepatitis C Virus (HCV)
Conditions: Huh7.5.1 HCVcc-Cre (HCVcc is cell-culture hepatitis C virus) infection, luciferase reporter, 44 h; series mostly up to 41.8 µM
Procedure, shortened: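 A cell-based infection assay in which seeded cells (1,000 per well) receive test compound after 4 h, are inoculated with HCVcc-Cre at approximately 0.5 moi, and are incubated 44 h before luminescence detection.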
Potency is read from the fitted curve at half-maximal effect; tags tell the direction and shape of the fitted curve.

| Structure (SMILES) | Potency |
| --- | --- |
| Cc1cc(C(=O)N[C@H](c2ccccc2)[C@@]2(C)C[C@@H]2[C@@H](C)C(=O)Nc2ccc3ccccc3c2)no1 | inconclusive [inhibitor, partial curve] |
| C[C@@]12CCC=C[C@H]1[C@H](c1ccc3ccccc3c1Br)N(Cc1ccccc1)C2=O | inconclusive [inhibitor, single point] |
| Cc1cc2c(cc1C)CSC(c1ccccc1O)SC2 | inconclusive [inhibitor, single point] |
| Cc1ccc(C(=O)Nc2ccc(CN3CCS(=O)(=O)CC3)cc2)cc1C | inconclusive [inhibitor, partial curve, poor fit] |
| Cc1cc(C)c2cc(C#N)c(N3CCCC3)nc2c1 | inconclusive [inhibitor, partial curve] |
| S=C(NC1CCCCC1)N(CCc1ccccc1)CCc1ccccc1 | inconclusive [inhibitor, full curve] |
| Cc1ccc(C)n1-n1cnc2sc(-c3ccccc3)cc2c1=O | active: 22.4 µM |
| CCN(CC)CC(=O)Nc1ccc(C)cc1Br | inconclusive [inhibitor, single point] |
| CCOC(=O)[C@]12Cc3cc(OC)ccc3[C@H]1N(Cc1ccccc1)C(=O)c1ccccc12 | inconclusive [inhibitor, single point] |
| COc1cccc(/C=N/n2nnnc2N)c1OCc1ccccc1Cl | inconclusive [inhibitor, single point] |
| COC(=O)c1[nH]c2c(c1C)C(=O)CC(c1cccc(OC)c1)C2 (configuration not stated) | inconclusive [inhibitor, full curve, poor fit] |
| O=C(N/N=C1\CC2CC=CC12)c1ccc(COc2ccccc2)cc1 (configuration not stated) | inconclusive [inhibitor, partial curve] |
| CCOc1ccc(-c2ncncc2-c2ccc(OC)cc2)c(O)c1 | inactive |
| C/C(=N\Nc1ccc(F)cc1F)c1ccc(Br)s1 | inconclusive [inhibitor, partial curve] |
| Cc1cccc(NS(=O)(=O)c2ccc(C(=O)NCC(c3ccccc3)N(C)C)cc2)c1C (configuration not stated) | inconclusive [inhibitor, single point] |
| O=C1C=C(c2cccc(Cl)c2O)C[C@@H](c2ccc(F)cc2)C1 | inactive |
| COc1ccc(N2N=NN(C(C)C)C2=C(Cl)c2nnnn2-c2ccc(OC)cc2)cc1 | inconclusive [inhibitor, single point] |
| CCN(CC)S(=O)(=O)c1cc(NC(=O)CCCOc2ccc(C(C)=O)cc2)ccc1C | active: 10 µM |
| O=c1c2ccccc2nc(/C=C/c2c[nH]c3ccccc23)n1CCO | inconclusive [inhibitor, full curve, poor fit] |
| CCn1cc(CNC(=O)c2cc(COc3ccc(F)cc3Cl)on2)cn1 | inconclusive [inhibitor, single point] |
| CC(C)NS(=O)(=O)c1ccc(NCCCn2ccnc2)c([N+](=O)[O-])c1 | inconclusive [inhibitor, full curve, poor fit] |

| Structure (SMILES) | Potency |
| --- | --- |
| CC1(C)Cc2ccccc2-c2nc3ccccc3c(=O)n21 | inconclusive [inhibitor, single point] |
| CCOc1ccc(-c2[nH]ncc2-c2ccc(OC)c(OC)c2)c(O)c1 | inconclusive [inhibitor, partial curve] |
| O=C(NCCC1CCCCN1S(=O)(=O)c1ccc(Cl)cc1)C(=O)NCc1ccncc1 (configuration not stated) | inconclusive [inhibitor, single point] |
| CC(C)n1ncc2c(C(=O)NCc3cccnc3)cc(C3CC3)nc21 | active: 7.94 µM |
| COc1ccc(C[C@H]2c3cc(O)c(OC)cc3CC[N+]2(C)[O-])cc1O (some centres not stated) | inconclusive [inhibitor, partial curve] |
| Cc1oc2c(c1C(=O)N1CCC(C)CC1)C(=O)c1ccccc1C2=O | inconclusive [inhibitor, single point] |
| NC(=S)N=Nc1c(O)n(Cc2ccc(Br)cc2)c2ccccc12 | active: 1 µM |
| CCOC(=O)c1sc(NCc2ccco2)c(-c2nc3ccccc3s2)c1N | active: 10 µM |
| CC1CC1C(=O)N1CCN(S(=O)(=O)c2cc(C(F)(F)F)cc(C(F)(F)F)c2)CC1 (configuration not stated) | inconclusive [inhibitor, single point] |
| Nc1cc(-c2ccccc2)nn1S(=O)(=O)c1ccc(F)cc1 | active: 10 µM |
| CC(=O)c1ccc(N2CCN(C(=O)C3CCCN(c4ncnc5c4nc4n5CCCCC4)C3)CC2)cc1 (configuration not stated) | inconclusive [inhibitor, partial curve] |
| CCc1nc(Nc2ccccc2)c2nnn(Cc3ccccc3)c2n1 | inconclusive [inhibitor, partial curve] |
| COc1ccc2nc(N3C(=O)/C(=C/c4ccccc4)NC3=S)sc2c1 | inconclusive [inhibitor, single point] |
| CCC(Sc1nc2cc(OC)c(OC)cc2c(=O)n1CCc1ccc(OC)c(OC)c1)C(=O)NCCOC (configuration not stated) | inconclusive [inhibitor, full curve, poor fit] |
| COC(=O)c1c(NC(=O)C(=O)N2CCOCC2)sc2c1CCCC2 | inconclusive [inhibitor, partial curve] |
| Oc1c(Br)cc(Cl)cc1C=Nc1ccc(N2CCOCC2)cc1 | inactive |
| COc1cccc(C(=O)N/N=C/c2ccc(OC3CSC3)cc2)c1 | inactive |
| CCCc1ccc2oc(C(=O)N3CCC(C(N)=O)(N4CCCCC4)CC3)c(C)c2c1 | inconclusive [inhibitor, single point] |
| Clc1ccc(OCCSCc2nc3ccccc3[nH]2)cc1 | inconclusive [inhibitor, single point] |
| N/C(=N\OC(=O)COc1ccc2ccccc2c1)c1ccncc1 | inconclusive [inhibitor, single point] |
| Cc1ccccc1C(=O)N1CCCC(CCC(=O)N2CCN(c3ccccn3)CC2)C1 (configuration not stated) | inconclusive [inhibitor, single point] |
